Measurements taken from the supplement of paper PMC12297408.
Where a name gives a salt, the structure may show the parent alone. About 40 (3%) of roughly 1,300 compounds showed activity. This is one part of the list.

System: Plasmodium falciparum NF54/iGP1_RE9H ulg8 stage V gametocytes
Assay: gametocyte viability (luciferase signal relative to DMSO control) (% of DMSO control); higher = less gametocytocidal activity, active = 50 or less
Conditions: exposure time: 72 h
Summary of the method: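 NF54/iGP1_RE9Hulg8 stage V gametocytes (day 12; ~2.5% gametocytemia, 3% hematocrit) were incubated with compounds at 10 µM or 1 µM final, in one well each, for 72 h at 37 °C in medium with 0.5% Albumax II. Luminescence after D-luciferin addition was read on an IVIS Lumina II. Viability refers to the mean of plate DMSO vehicle wells.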

CC(CN(C)C)C(C)(O)Cc1ccc(Cl)cc1 (stereo unspecified) [Clobutinol hydrochloride]
gametocyte viability (concentration: 1 µM): inactive: 91
gametocyte viability (concentration: 10 µM): inactive: 94

C[C@]1(Cn2ccnn2)[C@H](C(=O)O)N2C(=O)C[C@H]2S1(=O)=O [Tazobactam]
gametocyte viability (concentration: 1 µM): inactive: 84.9
gametocyte viability (concentration: 10 µM): inactive: 89.7

CC[C@@H](CO)NCCN[C@@H](CC)CO [Ethambutol dihydrochloride]
gametocyte viability (concentration: 1 µM): inactive: 84.7
gametocyte viability (concentration: 10 µM): inactive: 83.4

COCCc1ccc(OCC(O)CNC(C)C)cc1 (racemic) [Metoprolol-(+,-) (+)-tartrate salt]
gametocyte viability (concentration: 1 µM): inactive: 94
gametocyte viability (concentration: 10 µM): inactive: 94

C=CCSCC1Nc2cc(Cl)c(S(N)(=O)=O)cc2S(=O)(=O)N1 (stereo unspecified) [Althiazide]
gametocyte viability (concentration: 1 µM): inactive: 97.5
gametocyte viability (concentration: 10 µM): inactive: 91.5

CC(C(=O)O)c1ccc(C(=O)c2ccccc2)s1 (stereo unspecified) [Tiaprofenic acid]
gametocyte viability (concentration: 1 µM): inactive: 87.5
gametocyte viability (concentration: 10 µM): inactive: 85.6

CC(=O)N(CC(O)CN(C(C)=O)c1c(I)c(C(=O)NCC(O)CO)c(I)c(C(=O)NCC(O)CO)c1I)c1c(I)c(C(=O)NCC(O)CO)c(I)c(C(=O)NCC(O)CO)c1I (stereo unspecified) [Iodixanol]
gametocyte viability (concentration: 1 µM): inactive: 89.4
gametocyte viability (concentration: 10 µM): inactive: 89.2

c1ccc(CN(CC2=NCCN2)c2ccccc2)cc1 [Antazoline hydrochloride]
gametocyte viability (concentration: 1 µM): inactive: 95.1
gametocyte viability (concentration: 10 µM): inactive: 90.5

CN(C)CC/C=C1/c2ccccc2COc2ccc(CC(=O)O)cc21 [Olopatadine hydrochloride]
gametocyte viability (concentration: 1 µM): inactive: 77.9
gametocyte viability (concentration: 10 µM): inactive: 86.5

Nc1nc(NC2CC2)c2ncn([C@H]3C=C[C@@H](CO)C3)c2n1 [Abacavir Sulfate]
gametocyte viability (concentration: 1 µM): inactive: 81.6
gametocyte viability (concentration: 10 µM): inactive: 75.3

O=C(COc1ccc(Cl)cc1)N1CCN(Cc2ccc3c(c2)OCO3)CC1 [Fipexide hydrochloride]
gametocyte viability (concentration: 1 µM): inactive: 83.4
gametocyte viability (concentration: 10 µM): inactive: 78.5

CNC(C)CCC=C(C)C (stereo unspecified) [Isometheptene mucate]
gametocyte viability (concentration: 1 µM): inactive: 87.9
gametocyte viability (concentration: 10 µM): inactive: 88.6

CN(Cc1cnc2nc(N)nc(N)c2n1)c1ccc(C(=O)N[C@@H](CCC(=O)O)C(=O)O)cc1 [Methotrexate]
gametocyte viability (concentration: 1 µM): inactive: 91.4
gametocyte viability (concentration: 10 µM): inactive: 87.9

CN(Cc1cnc2nc(N)nc(N)c2n1)c1ccc(C(=O)N[C@@H](CCC(=O)O)C(=O)O)cc1 (racemic) [Amethopterin (R,S)]
gametocyte viability (concentration: 1 µM): inactive: 80.3
gametocyte viability (concentration: 10 µM): inactive: 83.6

CCN(CC)CCNc1ccc(CO)c2sc3ccccc3c(=O)c12 [Hycanthone]
gametocyte viability (concentration: 1 µM): inactive: 81.1
gametocyte viability (concentration: 10 µM): inactive: 84.5

Cc1ccsc1/C=C/C1=NCCCN1C [Morantel tartrate]
gametocyte viability (concentration: 1 µM): inactive: 89.3
gametocyte viability (concentration: 10 µM): inactive: 90.8

C[C@]12CC[C@@H]3c4ccc(OS(=O)(=O)O)cc4CC[C@H]3[C@@H]1CCC2=O [Estropipate]
gametocyte viability (concentration: 1 µM): inactive: 95.5
gametocyte viability (concentration: 10 µM): inactive: 88.3

COc1cccc(OC)c1C(=O)N[C@@H]1C(=O)N2[C@@H]1SC(C)(C)[C@@H]2C(=O)O [Methicillin sodium]
gametocyte viability (concentration: 1 µM): inactive: 83.4
gametocyte viability (concentration: 10 µM): inactive: 83.1

Cc1ccc(S(=O)(=O)NC(=O)NN2CCCCCC2)cc1 [Tolazamide]
gametocyte viability (concentration: 1 µM): inactive: 94.6
gametocyte viability (concentration: 10 µM): inactive: 97.4

CCN(CC)CCOC(=O)C(c1ccccc1)c1ccccc1 [Adiphenine hydrochloride]
gametocyte viability (concentration: 1 µM): inactive: 87.9
gametocyte viability (concentration: 10 µM): inactive: 90

OC(CCCN1CCCCC1)(c1ccccc1)c1ccccc1 [Diphenidol hydrochloride]
gametocyte viability (concentration: 1 µM): inactive: 88.8
gametocyte viability (concentration: 10 µM): inactive: 89.7

CCOC(=O)c1ccc(N)cc1 [Benzocaine]
gametocyte viability (concentration: 1 µM): inactive: 86.2
gametocyte viability (concentration: 10 µM): inactive: 81.3

COc1cc(-c2ccc(=O)[nH]n2)ccc1OC(F)F [Zardaverine]
gametocyte viability (concentration: 1 µM): inactive: 101
gametocyte viability (concentration: 10 µM): inactive: 104

CCCCC1(COC(=O)CCC(=O)O)C(=O)N(c2ccccc2)N(c2ccccc2)C1=O [Suxibuzone]
gametocyte viability (concentration: 1 µM): inactive: 79.1
gametocyte viability (concentration: 10 µM): inactive: 85.9

COc1cc(NC(C)CCCN)c2ncccc2c1 (stereo unspecified) [Primaquine diphosphate]
gametocyte viability (concentration: 1 µM): inactive: 83.1
gametocyte viability (concentration: 10 µM): active: 35.1

CCCCNc1c(C(=O)OCC)c(C)nc2c1cnn2CC [Tracazolate hydrochloride]
gametocyte viability (concentration: 1 µM): inactive: 88.5
gametocyte viability (concentration: 10 µM): inactive: 76.3

CSc1ccc2c(c1)N(CCC1CCCCN1C)c1ccccc1S2 (stereo unspecified) [Thioridazine hydrochloride]
gametocyte viability (concentration: 1 µM): inactive: 87.7
gametocyte viability (concentration: 10 µM): active: 30.1

CC1=C(/C=C/C(C)=C/C=C/C(C)=C\C(=O)O)C(C)(C)CCC1 [Isotretinoin]
gametocyte viability (concentration: 1 µM): inactive: 83.9
gametocyte viability (concentration: 10 µM): inactive: 59.7

CC/C(=C(/CC)c1ccc(O)cc1)c1ccc(O)cc1 [Diethylstilbestrol]
gametocyte viability (concentration: 1 µM): inactive: 88.9
gametocyte viability (concentration: 10 µM): inactive: 90.2

Cc1cc(-c2ccccc2)nnc1NCCN1CCOCC1 [Minaprine dihydrochloride]
gametocyte viability (concentration: 1 µM): inactive: 81.2
gametocyte viability (concentration: 10 µM): inactive: 83.5

NC(N)=Nc1nc(CSCC/C(N)=N/S(N)(=O)=O)cs1 [Famotidine]
gametocyte viability (concentration: 1 µM): inactive: 84.4
gametocyte viability (concentration: 10 µM): inactive: 82.5

CCN(CCO)CCCC(C)Nc1ccnc2cc(Cl)ccc12 (stereo unspecified) [Hydroxychloroquine sulfate]
gametocyte viability (concentration: 1 µM): inactive: 83.3
gametocyte viability (concentration: 10 µM): inactive: 80.8

COc1ccc(CC2c3cc(OC)c(OC)cc3CC[N+]2(C)CCC(=O)OCCCCCOC(=O)CC[N+]2(C)CCc3cc(OC)c(OC)cc3C2Cc2ccc(OC)c(OC)c2)cc1OC (stereo unspecified) [Atracurium besylate]
gametocyte viability (concentration: 1 µM): inactive: 84.6
gametocyte viability (concentration: 10 µM): inactive: 86.7

CC(=O)[C@H]1CC[C@H]2[C@@H]3CC=C4C[C@@H](O)CC[C@]4(C)[C@H]3CC[C@]12C [Pregnenolone]
gametocyte viability (concentration: 1 µM): inactive: 87
gametocyte viability (concentration: 10 µM): inactive: 84.4

CC(C)(C)c1ccc(C(O)CCCN2CCC(C(O)(c3ccccc3)c3ccccc3)CC2)cc1 (stereo unspecified) [Terfenadine]
gametocyte viability (concentration: 1 µM): inactive: 91.9
gametocyte viability (concentration: 10 µM): inactive: 96.9

CC(COc1ccccc1)NC(C)C(O)c1ccc(O)cc1 (stereo unspecified) [Isoxsuprine hydrochloride]
gametocyte viability (concentration: 1 µM): inactive: 86.9
gametocyte viability (concentration: 10 µM): inactive: 91.3

CCCCN1CCCCC1C(=O)Nc1c(C)cccc1C (stereo unspecified) [Bupivacaine hydrochloride]
gametocyte viability (concentration: 1 µM): inactive: 92.8
gametocyte viability (concentration: 10 µM): inactive: 95.4

CCOC(=O)NNc1nncc2ccccc12 [Todralazine hydrochloride]
gametocyte viability (concentration: 1 µM): inactive: 86.1
gametocyte viability (concentration: 10 µM): inactive: 76.5

O=C1C(=O)c2ccccc2C(O)=C1C1CCC(c2ccc(Cl)cc2)CC1 (stereo unspecified) [Atovaquone]
gametocyte viability (concentration: 1 µM): inactive: 91.4
gametocyte viability (concentration: 10 µM): inactive: 99.6

C[C@@H]1C[C@H]2[C@@H]3C[C@H](F)C4=CC(=O)C=C[C@]4(C)[C@@]3(F)[C@@H](O)C[C@]2(C)[C@@]1(O)C(=O)COC(=O)C(C)(C)C [Flumethasone pivalate]
gametocyte viability (concentration: 1 µM): inactive: 99.3
gametocyte viability (concentration: 10 µM): inactive: 94.6

Nc1ccc(S(=O)(=O)Nc2ccccn2)cc1 [Sulfapyridine]
gametocyte viability (concentration: 1 µM): inactive: 88.7
gametocyte viability (concentration: 10 µM): inactive: 83.6

COc1ccnc(C[S+]([O-])c2nc3cc(OC(F)F)ccc3[nH]2)c1OC (stereo unspecified) [Pantoprazole sodium]
gametocyte viability (concentration: 1 µM): inactive: 81.3
gametocyte viability (concentration: 10 µM): inactive: 77.2

Nc1ccn([C@@H]2O[C@H](CO)[C@@H](O)[C@@H]2O)c(=O)n1 [Cytarabine]
gametocyte viability (concentration: 1 µM): inactive: 94.5
gametocyte viability (concentration: 10 µM): inactive: 95.5

CN(C)CCCN1c2ccccc2Sc2ccc(Cl)cc21 [Chlorpromazine hydrochloride]
gametocyte viability (concentration: 1 µM): inactive: 87.8
gametocyte viability (concentration: 10 µM): inactive: 80.9

CCOc1ccccc1OC(c1ccccc1)C1CNCCO1 (stereo unspecified) [Reboxetine mesylate]
gametocyte viability (concentration: 1 µM): inactive: 86.6
gametocyte viability (concentration: 10 µM): inactive: 84.5

COc1ccc(CN2CCN(C(c3ccc(F)cc3)c3ccc(F)cc3)CC2)c(OC)c1OC [Lomerizine hydrochloride]
gametocyte viability (concentration: 1 µM): inactive: 83.8
gametocyte viability (concentration: 10 µM): inactive: 81.8

CC(C)(C)NC[C@H](O)COc1ccccc1C1CCCC1 [Penbutolol sulfate]
gametocyte viability (concentration: 1 µM): inactive: 94.6
gametocyte viability (concentration: 10 µM): inactive: 90.7

COc1ccc(C(=O)c2ccccc2O)c(O)c1 [Dioxybenzone]
gametocyte viability (concentration: 1 µM): inactive: 97.9
gametocyte viability (concentration: 10 µM): inactive: 102

Nc1nc2[nH]cc(CCc3ccc(C(=O)N[C@@H](CCC(=O)O)C(=O)O)cc3)c2c(=O)[nH]1 [Pemetrexed disodium]
gametocyte viability (concentration: 1 µM): inactive: 85.1
gametocyte viability (concentration: 10 µM): inactive: 85.6

O=C(OCCOCCO)c1ccccc1Nc1cccc(C(F)(F)F)c1 [Etofenamate]
gametocyte viability (concentration: 1 µM): inactive: 96.6
gametocyte viability (concentration: 10 µM): inactive: 99.6

O=C(O)[C@H]1/C(=C/CO)O[C@@H]2CC(=O)N21 [Potassium clavulanate]
gametocyte viability (concentration: 1 µM): inactive: 91.1
gametocyte viability (concentration: 10 µM): inactive: 87.4

Cc1cnc(C(=O)O)c[n+]1[O-] [Acipimox]
gametocyte viability (concentration: 1 µM): inactive: 82.7
gametocyte viability (concentration: 10 µM): inactive: 86.9

CN[C@@H]1[C@H](O[C@H]2[C@H](O[C@H]3[C@H](O)[C@@H](O)[C@H](NC(=N)N)[C@@H](O)[C@@H]3NC(=N)N)O[C@@H](C)[C@]2(O)CO)O[C@@H](CO)[C@H](O)[C@H]1O [Dihydrostreptomycin sulfate]
gametocyte viability (concentration: 1 µM): inactive: 98.9
gametocyte viability (concentration: 10 µM): inactive: 94

NCc1ccc(S(N)(=O)=O)cc1 [Mafenide hydrochloride]
gametocyte viability (concentration: 1 µM): inactive: 78.7
gametocyte viability (concentration: 10 µM): inactive: 79.5

CCc1oc2ccccc2c1C(=O)c1cc(Br)c(O)c(Br)c1 [Benzbromarone]
gametocyte viability (concentration: 1 µM): inactive: 82.5
gametocyte viability (concentration: 10 µM): inactive: 77.9

CC/C(=C(\c1ccccc1)c1ccc(OCCN(C)C)cc1)c1ccccc1 [Tamoxifen citrate]
gametocyte viability (concentration: 1 µM): inactive: 84.1
gametocyte viability (concentration: 10 µM): inactive: 89.4

C#C[C@]1(O)CC[C@H]2[C@@H]3CCC4=C(CCC(=O)C4)[C@H]3CC[C@@]21C [Norethynodrel]
gametocyte viability (concentration: 1 µM): inactive: 83.2
gametocyte viability (concentration: 10 µM): inactive: 68.7

CCOC(=O)[N-]c1c[n+](N2CCOCC2)no1 [Molsidomine]
gametocyte viability (concentration: 1 µM): inactive: 82.7
gametocyte viability (concentration: 10 µM): inactive: 89.2
